# Values joined by “and” are separate entries in the source; they are usually repeats but may differ in a detail not shown here. Equal values may be shown once. Over roughly 2,900 compounds, “IRF Lucia reporter activity, fold change vs agonist alone” has its median near 0.9; the highest 2% begin near 2.8. This is one part of the list.
# Assays:
# [1] = test system: RAW-Dual; test: IRF Lucia reporter activity, fold change vs agonist alone; higher = enhanced IRF activity; settings: agonist: MPLA (TLR4) […]
# Summary of the method: (§1)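 Library stock was pin-tooled at 50 nL into 384-well plates of RAW-Dual macrophages (50,000 cells/well, DMEM), followed 1 h later by a PRR agonist, and the cells were kept at 37 °C, 5% CO2. Supernatant collected after 20 hours was read for IRF by QuantiLuc luminescence and for NF-κB by QuantiBlue absorbance at 620 nm. Reporter activity is fold change over agonist-alone wells, and a well counted as cytotoxic when its IncuCyte confluency was below 70% of agonist controls in both mask sets.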
# [2] = test system: RAW-Dual; test: IRF Lucia reporter activity, fold change vs agonist alone; cytotoxicity flag (confluency mask): not cytotoxic; higher = enhanced IRF activity
# Summary of the method: as §1
# [3] = test system: RAW-Dual; test: IRF Lucia reporter activity, fold change vs agonist alone; cytotoxicity flag (confluency mask): cytotoxic (confluency <70% of control); higher = enhanced IRF activity
# Summary of the method: as §1
# [4] = library stock concentration (final ~1000-fold dilution): 10 mM, cytotoxicity flag (confluency mask): not cytotoxic
# [5] = agonist: 3'3'-cGAMP (STING) 10 ug/mL
structure (smiles),measurement,setting,value
Cc1cn(C2CC(N=[N+]=[N-])C(CO)O2)c(=O)[nH]c1=O (stereo not drawn),IRF Lucia reporter activity,[1]; [4],1
Cc1cn(C2CC(N=[N+]=[N-])C(CO)O2)c(=O)[nH]c1=O (stereo not drawn) (library stock concentration (final ~1000-fold dilution): 10 mM),IRF Lucia reporter activity,[2]; [5],0.923
same,IRF Lucia reporter activity,[2]; agonist: LPS (TLR4) 0.1 ug/mL,0.82
OCc1ccc(-c2ccc(-c3ccc(CO)s3)o2)s1 (library stock concentration (final ~1000-fold dilution): 10 mM),IRF Lucia reporter activity,[2]; [5],0.684
same,IRF Lucia reporter activity,[2]; agonist: LPS (TLR4) 0.1 ug/mL,0.7
OCc1ccc(-c2ccc(-c3ccc(CO)s3)o2)s1,IRF Lucia reporter activity,[1]; [4],0.819
O=c1c(-c2ccc(O)cc2)coc2cc(O)cc(O)c12 (library stock concentration (final ~1000-fold dilution): 10 mM),IRF Lucia reporter activity,[2]; [5],0.539
same,IRF Lucia reporter activity,[2]; agonist: LPS (TLR4) 0.1 ug/mL,0.563
O=c1c(-c2ccc(O)cc2)coc2cc(O)cc(O)c12,IRF Lucia reporter activity,[1]; [4],0.781
CCCCCCCCCCCCCC(=S)NCCCCC(NC(=O)OCc1ccccc1)C(=O)Nc1ccccc1 (stereo not drawn) (library stock concentration (final ~1000-fold dilution): 10 mM),IRF Lucia reporter activity,[2]; [5],0.949
same,IRF Lucia reporter activity,[2]; agonist: LPS (TLR4) 0.1 ug/mL,1.09
Nc1cc(O)nc(N)n1,IRF Lucia reporter activity,[1]; [4],1.05
Nc1cc(O)nc(N)n1 (library stock concentration (final ~1000-fold dilution): 10 mM),IRF Lucia reporter activity,[2]; [5],1.03
same,IRF Lucia reporter activity,[2]; agonist: LPS (TLR4) 0.1 ug/mL,0.921
O=C(O)c1ccc(Nc2ncc3c(n2)-c2ccc(Cl)cc2C(c2c(F)cccc2F)=NC3)cc1,IRF Lucia reporter activity,[1]; [4],1.15
O=C(O)c1ccc(Nc2ncc3c(n2)-c2ccc(Cl)cc2C(c2c(F)cccc2F)=NC3)cc1 (library stock concentration (final ~1000-fold dilution): 10 mM),IRF Lucia reporter activity,[2]; [5],1
same,IRF Lucia reporter activity,[2]; agonist: LPS (TLR4) 0.1 ug/mL,1.11
Clc1cc2c(NC3CCCC3)nnc(-c3ccncc3)c2cc1Cl (library stock concentration (final ~1000-fold dilution): 10 mM),IRF Lucia reporter activity,[2]; [5],0.898
same,IRF Lucia reporter activity,[2]; agonist: LPS (TLR4) 0.1 ug/mL,0.592
COc1cc2c(cc1OC)-c1cc3ccc(OC)c(OC)c3c[n+]1CC2 (library stock concentration (final ~1000-fold dilution): 10 mM),IRF Lucia reporter activity,[2]; [5],1.11 and 1.04
same,IRF Lucia reporter activity,[2]; agonist: LPS (TLR4) 0.1 ug/mL,0.76 and 0.898
Cc1ccc(S(=O)(=O)O)cc1.NC(=O)c1cccc2cn(-c3ccc(C4CCCNC4)cc3)nc12 (stereo not drawn) (library stock concentration (final ~1000-fold dilution): 10 mM),IRF Lucia reporter activity,[2]; [5],0.336
same,IRF Lucia reporter activity,[2]; agonist: LPS (TLR4) 0.1 ug/mL,0.527
C=CCc1ccc(O)c(-c2ccc(O)c(CC=C)c2)c1 (library stock concentration (final ~1000-fold dilution): 10 mM),IRF Lucia reporter activity,[2]; [5],1.05
same,IRF Lucia reporter activity,[2]; agonist: LPS (TLR4) 0.1 ug/mL,0.767
C=CCc1ccc(O)c(-c2ccc(O)c(CC=C)c2)c1,IRF Lucia reporter activity,[1]; [4],1.09
CNC(=C[N+](=O)[O-])NCCSCc1ccc(CN(C)C)o1 (library stock concentration (final ~1000-fold dilution): 10 mM),IRF Lucia reporter activity,[2]; [5],1.08 and 1.07
same,IRF Lucia reporter activity,[2]; agonist: LPS (TLR4) 0.1 ug/mL,0.905 and 0.934
N#CCC(C1CCCC1)n1cc(-c2ncnc3[nH]ccc23)cn1 (stereo not drawn) (library stock concentration (final ~1000-fold dilution): 10 mM),IRF Lucia reporter activity,[2]; [5],0.309 and 0.171 and 0.299
CCOC(=O)/C=C/c1ccc(O)c(OC)c1 (library stock concentration (final ~1000-fold dilution): 10 mM),IRF Lucia reporter activity,[2]; [5],0.301
same,IRF Lucia reporter activity,[2]; agonist: LPS (TLR4) 0.1 ug/mL,0.829
Cc1[nH]c(/C=C2\C(=O)Nc3ccc(S(=O)(=O)Cc4c(Cl)cccc4Cl)cc32)c(C)c1C(=O)N1CCCC1CN1CCCC1 (stereo not drawn) (library stock concentration (final ~1000-fold dilution): 10 mM),IRF Lucia reporter activity,[3]; [5],0.138
same,IRF Lucia reporter activity,[3]; agonist: LPS (TLR4) 0.1 ug/mL,0.23
Cc1[nH]c(/C=C2\C(=O)Nc3ccc(S(=O)(=O)Cc4c(Cl)cccc4Cl)cc32)c(C)c1C(=O)N1CCCC1CN1CCCC1 (stereo not drawn),IRF Lucia reporter activity,"[1]; library stock concentration (final ~1000-fold dilution): 10 mM, cytotoxicity flag (confluency mask): cytotoxic (confluency <70% of control)",0.316
Cc1cc(-c2nc(-c3ccc(OC(F)(F)F)cc3)no2)nn1Cc1ccnc(N2CCN(C3CC3)CC2)c1,IRF Lucia reporter activity,[1]; [4],1.43
Cc1cc(-c2nc(-c3ccc(OC(F)(F)F)cc3)no2)nn1Cc1ccnc(N2CCN(C3CC3)CC2)c1 (library stock concentration (final ~1000-fold dilution): 10 mM),IRF Lucia reporter activity,[2]; [5],1.27
same,IRF Lucia reporter activity,[2]; agonist: LPS (TLR4) 0.1 ug/mL,1.04
CC(=O)C1CCC2C3CCC4=CC(=O)CCC4(C)C3CCC12C (stereo not drawn) (library stock concentration (final ~1000-fold dilution): 10 mM),IRF Lucia reporter activity,[2]; [5],1.06
same,IRF Lucia reporter activity,[2]; agonist: LPS (TLR4) 0.1 ug/mL,0.453
CC(=O)C1CCC2C3CCC4=CC(=O)CCC4(C)C3CCC12C (stereo not drawn),IRF Lucia reporter activity,[1]; [4],1.03
Cl.Cl.N/C(=N\OCC(O)CN1CCCCC1)c1cccnc1 (stereo not drawn) (library stock concentration (final ~1000-fold dilution): 10 mM),IRF Lucia reporter activity,[2]; [5],0.993
same,IRF Lucia reporter activity,[2]; agonist: LPS (TLR4) 0.1 ug/mL,0.959
C=C1CC[C@@H]2[C@](C)(CO)[C@H](O)CC[C@@]2(C)[C@@H]1/C=C/C1=CCOC1=O (library stock concentration (final ~1000-fold dilution): 10 mM),IRF Lucia reporter activity,[2]; [5],1.19
same,IRF Lucia reporter activity,[2]; agonist: LPS (TLR4) 0.1 ug/mL,1.09
O=C(O)P(=O)(O)O,IRF Lucia reporter activity,"[1]; library stock concentration (final ~1000-fold dilution): 10 mM water, cytotoxicity flag (confluency mask): not cytotoxic",1.35
O=C(O)P(=O)(O)O (library stock concentration (final ~1000-fold dilution): 10 mM water),IRF Lucia reporter activity,[2]; [5],1.28
same,IRF Lucia reporter activity,[2]; agonist: LPS (TLR4) 0.1 ug/mL,0.88
CC(C)(C)NS(=O)(=O)c1cncc(-c2cc(F)c3nc(N)nn3c2)c1 (library stock concentration (final ~1000-fold dilution): 10 mM),IRF Lucia reporter activity,[2]; [5],0.838
same,IRF Lucia reporter activity,[2]; agonist: LPS (TLR4) 0.1 ug/mL,1.18
CC(C)(C)NS(=O)(=O)c1cncc(-c2cc(F)c3nc(N)nn3c2)c1,IRF Lucia reporter activity,[1]; [4],1.21
O=C1c2c(O)cc(O)cc2OC(c2cc(O)c(O)c(O)c2)C1O (stereo not drawn) (library stock concentration (final ~1000-fold dilution): 10 mM),IRF Lucia reporter activity,[2]; [5],0.997
same,IRF Lucia reporter activity,[2]; agonist: LPS (TLR4) 0.1 ug/mL,0.976
O=C1c2c(O)cc(O)cc2OC(c2cc(O)c(O)c(O)c2)C1O (stereo not drawn),IRF Lucia reporter activity,[1]; [4],1.02
COc1cc(OC)cc(N(CCNC(C)C)c2ccc3ncc(-c4cnn(C)c4)nc3c2)c1 (library stock concentration (final ~1000-fold dilution): 10 mM),IRF Lucia reporter activity,[3]; [5],0.661
same,IRF Lucia reporter activity,[3]; agonist: LPS (TLR4) 0.1 ug/mL,1.6
Cc1[nH]c(/C=C2\C(=O)Nc3ccccc32)c(C)c1CCC(=O)O (library stock concentration (final ~1000-fold dilution): 10 mM),IRF Lucia reporter activity,[2]; [5],0.752
same,IRF Lucia reporter activity,[2]; agonist: LPS (TLR4) 0.1 ug/mL,0.475
Cc1[nH]c(/C=C2\C(=O)Nc3ccccc32)c(C)c1CCC(=O)O,IRF Lucia reporter activity,[1]; [4],0.51

# Reference: the supplement of paper PMC10037445
